# Reference: the supplement of paper PMC8728848
# Some of the results follow.
# Key:
# Assay in all cases: glycan array binding signal (z-score within array); higher = stronger binding
# Conditions in all cases: glycan notation: IUPAC condensed, linker removed
# [1] = target: Fuc(a1-3)[Gal3S(b1-4)]GlcNAc6S
# Outline: (§1)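 Arrays were curated from the Consortium for Functional Glycomics database, 3228 in total, and kept only where the protein sequence was available. Binding is expressed as a within-array Z-score. This score was averaged across arrays of the same protein sequence at different concentrations or buffers and across linkers, and negative values can be read as non-binding.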
# [2] = target: Fuc(a1-3)[GalNAc(b1-4)]GlcNAc
# Outline: as §1
# [3] = target: Fuc(a1-3)[GalNAc(b1-4)]GlcNAc6S
# Outline: as §1
# [4] = target: Fuc(a1-4)GlcNAc
# Outline: as §1
# [5] = target: Fuc(b1-3)GlcNAc
# Outline: as §1
# [6] = target: Gal(a1-2)Gal
# Outline: as §1
# [7] = target: Gal(a1-3)Gal
# Outline: as §1
# [8] = target: Gal(a1-3)Gal(b1-3)GlcNAc
# Outline: as §1
# [9] = target: Gal(a1-3)Gal(b1-3)GlcNAc(b1-2)Man
# Outline: as §1
# [10] = target: Gal(a1-3)Gal(b1-3)GlcNAc(b1-2)Man(a1-3)[Gal(a1-3)Gal(b1-3)GlcNAc(b1-2)Man(a1-6)]Man(b1-4)GlcNAc(b1-4)GlcNAc
# Outline: as §1
# [11] = target: Gal(a1-3)Gal(b1-3)GlcNAc(b1-3)GalNAc
# Outline: as §1
# [12] = target: Gal(a1-3)Gal(b1-3)GlcNAc(b1-6)GalNAc
# Outline: as §1
# [13] = target: Gal(a1-3)Gal(b1-3)[Fuc(a1-4)]GlcNAc(b1-2)Man(a1-3)[Gal(a1-3)Gal(b1-3)[Fuc(a1-4)]GlcNAc(b1-2)Man(a1-6)]Man(b1-4)GlcNAc(b1-4)GlcNAc
# Outline: as §1
# [14] = target: Gal(a1-3)Gal(b1-4)Glc
# Outline: as §1
# [15] = target: Gal(a1-3)Gal(b1-4)GlcNAc
# Outline: as §1
# [16] = target: Gal(a1-3)Gal(b1-4)GlcNAc(b1-2)Man
# Outline: as §1
# [17] = target: Gal(a1-3)Gal(b1-4)GlcNAc(b1-2)Man(a1-3)[Gal(a1-3)Gal(b1-4)GlcNAc(b1-2)Man(a1-6)]Man(b1-4)GlcNAc(b1-4)GlcNAc
# Outline: as §1
# [18] = target: Gal(a1-3)Gal(b1-4)GlcNAc(b1-3)GalNAc
# Outline: as §1
# [19] = target: Gal(a1-3)Gal(b1-4)GlcNAc(b1-6)GalNAc
# Outline: as §1
# [20] = target: Gal(a1-3)Gal(b1-4)[Fuc(a1-3)]GlcNAc
# Outline: as §1
# [21] = target: Gal(a1-3)Gal(b1-4)[Fuc(a1-3)]GlcNAc(b1-2)Man(a1-3)[Gal(a1-3)Gal(b1-4)[Fuc(a1-3)]GlcNAc(b1-2)Man(a1-6)]Man(b1-4)GlcNAc(b1-4)GlcNAc
# Outline: as §1
# [22] = target: Gal(a1-3)GalNAc
# Outline: as §1
# [23] = target: Gal(a1-3)[Gal(a1-4)]Gal(b1-4)GlcNAc
# Outline: as §1
# [24] = target: Gal(a1-4)Gal(b1-3)GlcNAc(b1-2)Man(a1-3)[Gal(a1-4)Gal(b1-3)GlcNAc(b1-2)Man(a1-6)]Man(b1-4)GlcNAc(b1-4)GlcNAc
# Outline: as §1
# [25] = target: Gal(a1-4)Gal(b1-4)Glc
# Outline: as §1
# [26] = target: Gal(a1-4)Gal(b1-4)GlcNAc
# Outline: as §1
# [27] = target: Gal(a1-4)Gal(b1-4)GlcNAc(b1-2)Man(a1-3)[Gal(a1-4)Gal(b1-4)GlcNAc(b1-2)Man(a1-6)]Man(b1-4)GlcNAc(b1-4)GlcNAc
# Outline: as §1
# [28] = target: Gal(a1-4)Gal(b1-4)GlcNAc(b1-3)Gal(b1-4)Glc
# Outline: as §1
# [29] = target: Gal(a1-4)GlcNAc
# Outline: as §1
# [30] = target: Gal(a1-6)Glc
# Outline: as §1
# [31] = target: Gal(b1-2)Gal
# Outline: as §1
# [32] = target: Gal(b1-3)Gal
# Outline: as §1
# [33] = target: Gal(b1-3)Gal(b1-4)GlcNAc
# Outline: as §1
# [34] = target: Gal(b1-3)GalNAc
# Outline: as §1
# [35] = target: Gal(b1-3)GalNAc(a1-3)[Fuc(a1-2)]Gal(b1-4)Glc
# Outline: as §1
# [36] = target: Gal(b1-3)GalNAc(a1-3)[Fuc(a1-2)]Gal(b1-4)GlcNAc
# Outline: as §1
# [37] = target: Gal(b1-3)GalNAc(b1-3)Gal
# Outline: as §1
# [38] = target: Gal(b1-3)GalNAc(b1-3)Gal(a1-4)Gal(b1-4)Glc
# Outline: as §1
# [39] = target: Gal(b1-3)GalNAc(b1-4)Gal(b1-4)Glc
# Outline: as §1
# [40] = target: Gal(b1-3)GalNAc(b1-4)[Neu5Ac(a2-3)]Gal(b1-4)Glc
# Outline: as §1
# [41] = target: Gal(b1-3)GlcNAc
# Outline: as §1
# [42] = target: Gal(b1-3)GlcNAc(a1-3)Gal(b1-4)GlcNAc
# Outline: as §1
# [43] = target: Gal(b1-3)GlcNAc(a1-6)Gal(b1-4)GlcNAc
# Outline: as §1
# [44] = target: Gal(b1-3)GlcNAc(b1-2)Man
# Outline: as §1
# [45] = target: Gal(b1-3)GlcNAc(b1-2)Man(a1-3)[Gal(b1-3)GlcNAc(b1-2)Man(a1-6)]Man(b1-4)GlcNAc(b1-4)GlcNAc
# Outline: as §1
binder,measurement,setting,value
AidA (Burkholderia cenocepacia) (protein) MSRVTDVLVSFDTETILKKYPNPSKNPAAPTLIDWRYVYMVTNQDNVISGQAGGELDLKAQVGDLIRWRETSLSLGFENQVVFYKFIGNVGNDLISTPTPRVAEASIPVPNTSKPEVPTCQKVANYYWSSECLKVGRVTYHFQFQIIDRNCQSQGCFSWDPFISIHN,glycan array binding signal (z-score),[1],-0.078
same,glycan array binding signal (z-score),[2],-0.281
same,glycan array binding signal (z-score),[3],0.074
same,glycan array binding signal (z-score),[4],3.1
same,glycan array binding signal (z-score),[5],-0.007
same,glycan array binding signal (z-score),[6],0.943
same,glycan array binding signal (z-score),[7],1.06
same,glycan array binding signal (z-score),[8],0.178
same,glycan array binding signal (z-score),[9],-0.304
same,glycan array binding signal (z-score),[10],0.231
same,glycan array binding signal (z-score),[11],-0.32
same,glycan array binding signal (z-score),[12],-0.754
same,glycan array binding signal (z-score),[13],0.408
same,glycan array binding signal (z-score),[14],-0.484
same,glycan array binding signal (z-score),[15],-0.134
same,glycan array binding signal (z-score),[16],0
same,glycan array binding signal (z-score),[17],-0.2
same,glycan array binding signal (z-score),[18],0.153
same,glycan array binding signal (z-score),[19],0.471
same,glycan array binding signal (z-score),[20],-0.421
same,glycan array binding signal (z-score),[21],0.688
same,glycan array binding signal (z-score),[22],-0.365
same,glycan array binding signal (z-score),[23],0.54
same,glycan array binding signal (z-score),[24],0.346
same,glycan array binding signal (z-score),[25],-0.129
same,glycan array binding signal (z-score),[26],0.566
same,glycan array binding signal (z-score),[27],0.711
same,glycan array binding signal (z-score),[28],-0.277
same,glycan array binding signal (z-score),[29],0.459
same,glycan array binding signal (z-score),[30],0.024
same,glycan array binding signal (z-score),[31],-0.457
same,glycan array binding signal (z-score),[32],0.911
same,glycan array binding signal (z-score),[33],-0.175
same,glycan array binding signal (z-score),[34],0.314
same,glycan array binding signal (z-score),[35],-0.092
same,glycan array binding signal (z-score),[36],-0.722
same,glycan array binding signal (z-score),[37],0.156
same,glycan array binding signal (z-score),[38],0.445
same,glycan array binding signal (z-score),[39],0.223
same,glycan array binding signal (z-score),[40],0.172
same,glycan array binding signal (z-score),[41],-0.602
same,glycan array binding signal (z-score),[42],0.237
same,glycan array binding signal (z-score),[43],-0.446
same,glycan array binding signal (z-score),[44],-0.363
same,glycan array binding signal (z-score),[45],-0.142
